Some of the results follow.
What was measured:
Test in all cases: glycan array binding signal (z-score within array); higher = stronger binding
Details in all cases: glycan notation: IUPAC condensed, linker removed
[1] = biological target: Glc(b1-2)Glc(b1-2)Glc(b1-2)Glc(b1-2)Glc(b1-2)Glc(b1-2)Glc(b1-2)Glc(b1-2)Glc(b1-2)Glc(b1-2)Glc(b1-2)Glc
Summary of the method: (§1)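 The binding signal is a Z-score computed within each array and averaged over linkers. Arrays of the same protein sequence at different concentrations or buffers were also averaged together. Data originate from 3228 arrays in the Consortium for Functional Glycomics database, kept only where the protein sequence was available.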

[2] = biological target: Glc(b1-2)Glc(b1-2)Glc(b1-2)Glc(b1-2)Glc(b1-2)Glc(b1-2)Glc(b1-2)Glc(b1-2)Glc(b1-2)Glc(b1-2)Glc(b1-2)Glc(b1-2)Glc
Summary of the method: as §1

Glc(b1-3)Glc = biological target: Glc(b1-3)Glc
Summary of the method: as §1

Glc(b1-3)Glc(b1-3)Glc = biological target: Glc(b1-3)Glc(b1-3)Glc
Summary of the method: as §1

[3] = biological target: Glc(b1-3)Glc(b1-3)Glc(b1-3)Glc
Summary of the method: as §1

[4] = biological target: Glc(b1-3)Glc(b1-3)Glc(b1-3)Glc(b1-3)Glc
Summary of the method: as §1

[5] = biological target: Glc(b1-3)Glc(b1-3)Glc(b1-3)Glc(b1-3)Glc(b1-3)Glc
Summary of the method: as §1

[6] = biological target: Glc(b1-3)Glc(b1-3)Glc(b1-3)Glc(b1-3)Glc(b1-3)Glc(b1-3)Glc
Summary of the method: as §1

[7] = biological target: Glc(b1-3)Glc(b1-3)Glc(b1-3)Glc(b1-3)Glc(b1-3)Glc(b1-3)Glc(b1-3)Glc
Summary of the method: as §1

[8] = biological target: Glc(b1-3)Glc(b1-3)Glc(b1-3)Glc(b1-3)Glc(b1-3)Glc(b1-3)Glc(b1-3)Glc(b1-3)Glc
Summary of the method: as §1

[9] = biological target: Glc(b1-3)Glc(b1-3)Glc(b1-3)Glc(b1-3)Glc(b1-3)Glc(b1-3)Glc(b1-3)Glc(b1-3)Glc(b1-3)Glc
Summary of the method: as §1

[10] = biological target: Glc(b1-3)Glc(b1-3)Glc(b1-3)Glc(b1-3)Glc(b1-3)Glc(b1-3)Glc(b1-3)Glc(b1-3)Glc(b1-3)Glc(b1-3)Glc
Summary of the method: as §1

[11] = biological target: Glc(b1-3)Glc(b1-3)Glc(b1-3)Glc(b1-3)Glc(b1-3)Glc(b1-3)Glc(b1-3)Glc(b1-3)Glc(b1-3)Glc(b1-3)Glc(b1-3)Glc
Summary of the method: as §1

[12] = biological target: Glc(b1-3)Glc(b1-3)Glc(b1-3)Glc(b1-3)Glc(b1-3)Glc(b1-3)Glc(b1-3)Glc(b1-3)Glc(b1-3)Glc(b1-3)Glc(b1-3)Glc(b1-3)Glc
Summary of the method: as §1

[13] = biological target: Glc(b1-3)Glc(b1-3)Glc(b1-3)Glc(b1-3)Glc(b1-3)Glc(b1-3)Glc(b1-3)[Glc(b1-6)]Glc(b1-3)Glc
Summary of the method: as §1

[14] = biological target: Glc(b1-3)Glc(b1-3)Glc(b1-3)Glc(b1-3)Glc(b1-3)Glc(b1-3)[Glc(b1-6)]Glc(b1-3)Glc(b1-3)Glc
Summary of the method: as §1

[15] = biological target: Glc(b1-3)Glc(b1-3)Glc(b1-3)Glc(b1-3)[Glc(b1-6)]Glc(b1-3)Glc(b1-3)Glc(b1-3)Glc(b1-3)Glc
Summary of the method: as §1

[16] = biological target: Glc(b1-3)Glc(b1-3)Glc(b1-3)[Glc(b1-6)]Glc(b1-3)Glc(b1-3)Glc(b1-3)Glc(b1-3)[Glc(b1-6)]Glc(b1-3)Glc
Summary of the method: as §1

[17] = biological target: Glc(b1-3)Glc(b1-3)[Glc(b1-6)]Glc(b1-3)Glc(b1-3)Glc(b1-3)Glc(b1-3)Glc(b1-3)Glc(b1-3)Glc
Summary of the method: as §1

Glc(b1-3)Glc(b1-4)Glc = biological target: Glc(b1-3)Glc(b1-4)Glc
Summary of the method: as §1

[18] = biological target: Glc(b1-3)Glc(b1-4)Glc(b1-4)Glc
Summary of the method: as §1

[19] = biological target: Glc(b1-3)Glc(b1-4)Glc(b1-6)Glc(b1-4)Glc
Summary of the method: as §1

[20] = biological target: Glc(b1-3)[Glc(b1-6)]Glc(a1-3)Glc(b1-3)[Glc(b1-6)]Glc
Summary of the method: as §1

[21] = biological target: Glc(b1-3)[Glc(b1-6)]Glc(b1-3)Glc(b1-3)Glc(b1-3)Glc(b1-3)Glc(b1-3)Glc(b1-3)Glc
Summary of the method: as §1

Glc(b1-4)Glc = biological target: Glc(b1-4)Glc
Summary of the method: as §1

Glc(b1-4)Glc(b1-3)Glc = biological target: Glc(b1-4)Glc(b1-3)Glc
Summary of the method: as §1

[22] = biological target: Glc(b1-4)Glc(b1-3)Glc(b1-4)Glc
Summary of the method: as §1

Glc(b1-4)Glc(b1-4)Glc = biological target: Glc(b1-4)Glc(b1-4)Glc
Summary of the method: as §1

[23] = biological target: Glc(b1-4)Glc(b1-4)Glc(b1-3)Glc
Summary of the method: as §1

B1: Lam16A (Thermotoga maritima), Q9WXN1 (protein)
chain: EQINNGTFDEPIVNDQANNPDEWFIWQAGDYGISGARVSDYGVRDGYAYITIADPGTDTWHIQFNQWIGLYRGKTYTISFKAKADTPRPINVKILQNHDPWTNYFAQTVNLTADWQTFTFTYTHPDDADEVVQISFELGEGTATTIYFDDVTVSPQ
glycan array binding signal (z-score) [1]: -0.373
glycan array binding signal (z-score) [2]: -0.373
glycan array binding signal (z-score) (Glc(b1-3)Glc): -0.373
glycan array binding signal (z-score) (Glc(b1-3)Glc(b1-3)Glc): -0.359
glycan array binding signal (z-score) [3]: 0.527
glycan array binding signal (z-score) [4]: 1.45
glycan array binding signal (z-score) [5]: 1.79
glycan array binding signal (z-score) [6]: 1.73
glycan array binding signal (z-score) [7]: 2.94
glycan array binding signal (z-score) [8]: 2.58
glycan array binding signal (z-score) [9]: 2.77
glycan array binding signal (z-score) [10]: 3.64
glycan array binding signal (z-score) [11]: 4.46
glycan array binding signal (z-score) [12]: 4.88
glycan array binding signal (z-score) [13]: 2.11
glycan array binding signal (z-score) [14]: 1.28
glycan array binding signal (z-score) [15]: 1.41
glycan array binding signal (z-score) [16]: 1.26
glycan array binding signal (z-score) [17]: 2.49
glycan array binding signal (z-score) (Glc(b1-3)Glc(b1-4)Glc): -0.373
glycan array binding signal (z-score) [18]: -0.358
glycan array binding signal (z-score) [19]: -0.308
glycan array binding signal (z-score) [20]: -0.373
glycan array binding signal (z-score) [21]: 0.667
glycan array binding signal (z-score) (Glc(b1-4)Glc): -0.373
glycan array binding signal (z-score) (Glc(b1-4)Glc(b1-3)Glc): -0.373
glycan array binding signal (z-score) [22]: -0.373
glycan array binding signal (z-score) (Glc(b1-4)Glc(b1-4)Glc): -0.373
glycan array binding signal (z-score) [23]: -0.373

Source: the supplement of paper PMC8728848
